{"source": "PubChem BioAssay AID1468", "about": "(National Center for Advancing Translational Sciences (NCATS), 2008)", "note": "Among all 280,000 compounds or so, about 1,100 (0.39%) were called active. Inconclusive means that the source gave no clear call. Such entries were picked first, then a sample of the others. The call rests on the fitted dose curve; in most records, active means well fitted inhibition curve with a large enough effect; inconclusive means small, poorly fitted or top-dose-only effect, or effect the other way; inactive means flat fitted curve, though single readings scatter. No potency is given beside an inconclusive call; the fits are too rough. Potency means the concentration at half of the fitted maximal effect; tags describe the fitted curve by direction and shape."}
{"target": "Microtubule-associated protein tau (Homo sapiens) (UniProt P10636)", "sequence (P10636 whole entry, looked up)": "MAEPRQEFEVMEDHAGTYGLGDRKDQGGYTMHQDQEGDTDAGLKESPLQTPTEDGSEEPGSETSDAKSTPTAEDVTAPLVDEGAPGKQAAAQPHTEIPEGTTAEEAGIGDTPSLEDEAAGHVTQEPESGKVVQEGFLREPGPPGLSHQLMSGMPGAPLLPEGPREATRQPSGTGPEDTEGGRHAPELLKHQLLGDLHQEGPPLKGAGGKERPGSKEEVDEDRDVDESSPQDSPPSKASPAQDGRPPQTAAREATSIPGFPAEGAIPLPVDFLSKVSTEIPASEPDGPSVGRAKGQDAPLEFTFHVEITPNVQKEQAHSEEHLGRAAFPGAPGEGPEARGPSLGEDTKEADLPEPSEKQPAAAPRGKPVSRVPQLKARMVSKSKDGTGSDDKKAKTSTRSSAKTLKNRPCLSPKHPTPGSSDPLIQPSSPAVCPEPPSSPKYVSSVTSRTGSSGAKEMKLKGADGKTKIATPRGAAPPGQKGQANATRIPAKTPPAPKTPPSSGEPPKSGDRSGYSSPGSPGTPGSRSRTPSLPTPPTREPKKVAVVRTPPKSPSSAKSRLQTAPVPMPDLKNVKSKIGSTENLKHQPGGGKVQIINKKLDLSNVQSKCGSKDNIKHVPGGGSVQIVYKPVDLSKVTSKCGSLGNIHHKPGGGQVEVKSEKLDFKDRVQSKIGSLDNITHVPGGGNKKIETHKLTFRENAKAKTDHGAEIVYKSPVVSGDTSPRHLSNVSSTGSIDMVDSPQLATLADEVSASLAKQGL", "experiment": "qHTS for Inhibitors of Tau Fibril Formation, Fluorescence Polarization; further: nearly all actives have a fitted effect of over 55% in size", "conditions": "K18 P301L tau heparin fibrillization, Alexa594 FP, 6 h; series mostly up to 57.7 µM", "in_short": "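K18 P301L tau (15 uM unlabeled/0.24 uM Alexa 594-labeled, final) + compound + heparin 20 uM final; 100 mM NaOAc pH 7; 6 hr 37 C; ThT 30 uM final added, 1 hr RT; FP ex 555/em 632 nm.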"}
{"smiles": "CC1CC=C2C(C#N)=C(N)C(C#N)(C#N)C(c3cccs3)C2C1", "note": "(stereo not given)", "Potency": "inconclusive [inhibitor, full curve, poor fit]"}
{"smiles": "Cc1ccc(NC(=O)c2snc3ccc(Cl)cc23)cc1C", "Potency": "inconclusive [inhibitor, single point]"}
{"smiles": "COc1ccc(OC)c(C2N(c3ccccn3)C(=O)C3CCCN32)c1", "note": "(stereo not given)", "Potency": "inconclusive [activator, partial curve]"}
{"smiles": "COc1ccc(OCc2ccc(-c3nc(C#N)c(NCc4ccccc4)o3)o2)cc1", "Potency": "inconclusive [activator, full curve, poor fit]"}
{"smiles": "Cc1ccc(-n2nc(CC#N)c(C#N)c2N)cc1Cl", "Potency": "inconclusive [activator, single point]"}
{"smiles": "O=C(c1ccc2c(c1)OCCO2)N(Cc1cccnc1)c1nc2c(F)cc(F)cc2s1", "Potency": "inactive"}
{"smiles": "CCOC(=O)c1ccc(N2C(=O)Cc3cc(OCC)c(OCC)cc3C2c2ccccc2)cc1", "note": "(stereo not given)", "Potency": "inactive"}
{"smiles": "O=[N+]([O-])c1cccc(N2Cc3ccccc3C2)c1", "Potency": "inconclusive [inhibitor, partial curve]"}
{"smiles": "N#Cc1c(N2CCOCC2)nc(N)c2c(N)nc3c(c12)CC(CCl)O3", "note": "(stereo not given)", "Potency": "inactive"}
{"smiles": "CC(C)Sc1nc(N)nc(-c2cccs2)c1C#N", "Potency": "inconclusive [inhibitor, full curve]"}
{"smiles": "Cn1c(SCc2ccccc2Cl)nc2c([nH]c3ccccc32)c1=O", "Potency": "inconclusive [inhibitor, full curve]"}
{"smiles": "Cc1csc2c(N3CCN(C(=O)Nc4ccc(OC(F)(F)F)cc4)CC3)ncnc12", "Potency": "inconclusive [inhibitor, partial curve]"}
{"smiles": "COCCNC(=O)c1ccc2c(=O)n(CCOC)c(SCC(=O)c3c[nH]c4ccccc34)nc2c1", "Potency": "inactive"}
{"smiles": "CC1CC(=O)c2cnc(NCc3ccco3)nc2C1", "note": "(stereo not given)", "Potency": "inconclusive [inhibitor, full curve, poor fit]"}
{"smiles": "Cc1nc(N=Nc2cc(S(=O)(=O)O)ccc2S(=O)(=O)O)c(COP(=O)(O)O)c(C=O)c1O", "Potency": "inconclusive [inhibitor, single point]"}
{"smiles": "Cc1[nH]n(-c2ccccc2)c(=O)c1/C=C1/C=c2ccccc2=N1", "Potency": "inactive"}
{"smiles": "CCN(CC)S(=O)(=O)c1ccc(/C=C/C(=O)Nc2cccc(F)c2)cc1", "Potency": "active: 35.5 µM"}
{"smiles": "CC(C)(C)NC(=S)NNC(=O)c1ccncc1", "Potency": "inactive"}
{"smiles": "CCc1nc2sc3c(=O)[nH]cnc3c2c2c1CSC(C)(C)C2", "Potency": "inactive"}
{"smiles": "Cc1cc(C)cc(NC(=O)C(=O)NCC(c2cccnc2)N2CCN(c3ccccc3)CC2)c1", "note": "(stereo not given)", "Potency": "inactive"}
{"smiles": "O=C1c2ccccc2-c2onc3ccc(NCc4ccco4)c1c23", "Potency": "active: 25.1 µM"}
{"smiles": "C=CCn1c(SCC(=O)C(C)(C)C)nnc1-c1cccs1", "Potency": "inconclusive [inhibitor, full curve, poor fit]"}
{"smiles": "COc1ccc2c(c1)C(=O)[C@H](OC(=O)Nc1ccc(C)c(Br)c1)[C@@H](c1ccc(OC)c(Br)c1)O2", "Potency": "inconclusive [inhibitor, partial curve]"}
{"smiles": "Cc1nc(OCc2ccccc2)c2sc3nc4c(cc3c2n1)COC(C)(C)C4", "Potency": "inactive"}
{"smiles": "CC(=O)Nc1ccc(NC(=O)CSc2ccc(-c3cccs3)nn2)cc1", "Potency": "inconclusive [inhibitor, single point]"}
{"smiles": "CCCN1CC(CSC)C[C@H]2c3cccc4[nH]cc(c34)C[C@H]21", "note": "(stereo not given in full)", "Potency": "inactive"}
{"smiles": "COc1cc(C)ccc1OCCSc1nc2ccc(NC(=O)c3ccc(C)cc3)cc2s1", "Potency": "inconclusive [inhibitor, partial curve, poor fit]"}
{"smiles": "CN(C)c1ccc(/C=C/c2cc[n+](C)cc2)cc1", "Potency": "inconclusive [activator, partial curve, poor fit]"}
{"smiles": "O=C(C1CCCN(S(=O)(=O)c2cnc[nH]2)C1)N(CCc1ccccc1)Cc1ccccc1", "note": "(stereo not given)", "Potency": "inactive"}
{"smiles": "O=C(COc1cccc2ccccc12)N/N=C/C=C/c1ccccc1", "Potency": "inconclusive [inhibitor, partial curve]"}
{"smiles": "Cc1c(C(=O)N(Cc2ccc(N(C)C)cc2)Cc2ccco2)oc2cc(Br)ccc12", "Potency": "inconclusive [activator, full curve, poor fit]"}
{"smiles": "Cc1cc(C)cc(NS(=O)(=O)c2ccc(NC(=S)NC(=O)c3cccs3)cc2)c1", "Potency": "inconclusive [inhibitor, partial curve]"}
{"smiles": "CC(C)NC(=O)c1cc2cc([N+](=O)[O-])ccc2s1", "Potency": "inactive"}
{"smiles": "CCc1c(C)sc2c1CCN(C(=O)Nc1cc(Cl)c(OC)cc1OC)C2c1ccccc1", "note": "(stereo not given)", "Potency": "inactive"}
{"smiles": "C#CCn1cnc2c(cnn2-c2ccc(F)cc2)c1=O", "Potency": "inactive"}
{"smiles": "CCOC(=O)c1ccc(N=C2SC(C(=O)NC)CC(=O)N2Cc2ccc(F)cc2)cc1", "note": "(stereo not given)", "Potency": "inconclusive [inhibitor, single point]"}
{"smiles": "CCOC(=O)N/N=C(C)/C=C/c1ccco1", "Potency": "inconclusive [inhibitor, single point]"}
{"smiles": "CN(C)S(=O)(=O)c1cccc(N=C2NN=C(c3ccccc3)CS2)c1", "Potency": "inconclusive [inhibitor, partial curve]"}
{"smiles": "COc1ccc(N(C)C(=S)Oc2ccc(C(=O)Nc3ccccc3)cc2)cc1", "Potency": "inconclusive [inhibitor, full curve, poor fit]"}
{"smiles": "CCC(=O)Nc1ccccc1C(=O)OCC(=O)c1ccc2ccccc2c1", "Potency": "inactive"}
{"smiles": "Cc1ccc(-c2nnc(Nc3ccc(OCC(N)=O)cc3)c3ccccc23)cc1S(=O)(=O)N(C)C", "Potency": "inconclusive [activator, single point]"}
{"smiles": "COc1ccc(C2CC3(CC(C)(C)NC(=S)N3)Oc3cc(O)cc(C)c32)cc1", "note": "(stereo not given)", "Potency": "inactive"}
{"smiles": "CC(C)(C)c1ccc(C2=NC(C)(C)N(CC(=O)Nc3ccc(F)c(F)c3)C2=O)cc1", "Potency": "inconclusive [inhibitor, partial curve]"}
{"smiles": "COc1ccc(-c2nn(-c3ccccc3)cc2/C=C/C(=O)OCC(=O)Nc2ccc(C#N)cc2)cc1", "Potency": "inconclusive [inhibitor, partial curve]"}
{"smiles": "COc1ccccc1NC(=O)CSc1nnc(Cc2cccn2C)n1CCc1ccccc1", "Potency": "inactive"}
